About 540 (0.36%) of roughly 150,000 compounds showed an effect of 50% or more. Some of the results follow.
These compounds were tested on Plasmodium falciparum (assay: Primary screen in NF54 nanoGlo assay, in single point, at 2uM, 72h; a lower Z score goes with more inhibition). Settings: timepoint 72 hour.
Assay type: functional, Erythrocyte
With COc1nccc(N2C[C@H]3CC[C@@H](C2)N(Cc2c(C)noc2C)C3=O)c1C#N the “% Inhibition” value was -7% and the Z score was 0.61. For CC(C)Cc1cc(N[C@H]2CC23CCOCC3)ncn1, the “% Inhibition” value was -9% and the Z score was 1.46. For Nc1nc(CCCNCc2cccc(-c3ccco3)c2)cs1, the “% Inhibition” value was -25% and the Z score was 2.77. With Cc1nn(C)c(C)c1[C@@H]1[C@@H](Nc2nccs2)CC(=O)N1C the “% Inhibition” value was -7% and the Z score was 1.3. In the case of O=C(Nc1ccccc1)C1CCN(CN2C(=O)NC3(CCCCC3)C2=O)CC1, the “% Inhibition” value was -7% and the Z score was 1.04. For Cn1cc(Cl)c(NC(=O)N2CCn3cccc3C2)n1, the “% Inhibition” value was -12% and the Z score was 1.23. With COc1ccc(Nc2nnc(C(=O)N3CCCC3)n2C)cc1 the “% Inhibition” value was -11% and the Z score was 1.55. In the case of COc1ccc(S(=O)(=O)N2CCOCC2)cc1NC(=O)Cc1ccc(F)cc1, the “% Inhibition” value was -15% and the Z score was 1.99. For CCN(C(=O)C1=NN(c2ccccc2)C(=O)CC1)c1ccccc1, the “% Inhibition” value was 3% and the Z score was -0.65. For Cc1ccc2[nH]nc(CNC(=O)[C@@H]3CCC(=O)N3)c2c1, the “% Inhibition” value was 2% and the Z score was -0.29. In the case of O=C(c1cncc(NC[C@@H](c2ccccc2)N2CCCCCC2)n1)N1CCCC1, the “% Inhibition” value was 5% and the Z score was -0.88. In the case of O=C(Cc1c[nH]c2ccccc12)Nc1cc(S(=O)(=O)N2CCOCC2)ccc1N1CCOCC1, the “% Inhibition” value was -4% and the Z score was 0.71. In the case of Cc1nc(NC(=O)C2=NN(C)C(=O)CC2)sc1-c1ccccn1, the “% Inhibition” value was 15% and the Z score was -1.97. Cc1cnc(CNC(=O)c2coc(COc3ccc(F)cc3Cl)n2)cn1 was tested, and the “% Inhibition” value was -8% and the Z score was 1.3. For Cc1ccc(Cn2nnc3c(O)nc([C@H]4CCCN(C(=O)COc5ccc(F)cc5)C4)nc32)cc1, the “% Inhibition” value was -15% and the Z score was 1.33. In the case of Cc1cc(F)ccc1-c1cccc(C(=O)N(C)CC2(CO)CCCC2)c1, the “% Inhibition” value was -6% and the Z score was 0.59. COc1ccccc1-c1nc(-c2cccc(OCc3ccc(C)cc3)c2)no1 was tested, and the “% Inhibition” value was -5% and the Z score was 0.84. With CCN(CC)C(=O)COc1c(OC)cccc1C(N)=O the “% Inhibition” value was 2% and the Z score was -0.44. CC(C)Cc1cc(-c2nccn2CC(N)=O)n[nH]1 was tested, and the “% Inhibition” value was -3% and the Z score was 0.38. For COc1ccccc1/C=C/CN1CCN(Cc2ccc(C)o2)[C@@H](CCO)C1, the “% Inhibition” value was -11% and the Z score was 1.41. CN(C(=O)c1ccc(C(=O)O)cn1)C1CCCCC1c1ccccc1 (stereo not drawn) was tested, and the “% Inhibition” value was -6% and the Z score was 0.61. With Cc1cn2nc(N3CCCC3)sc2n1 the “% Inhibition” value was -14% and the Z score was 1.58. C[C@@H](CCc1ccccc1)NC(=O)CCC(=O)N1CCCn2nc(-c3cccn3C)cc21 was tested, and the “% Inhibition” value was -4% and the Z score was 0.69. For COCCCN(Cc1c(-c2ccccc2)noc1N1CCCC1)C(=O)c1ccccc1C, the “% Inhibition” value was 11% and the Z score was -1.5. In the case of Cc1noc2ncnc(NCC3CCCC34NC(=O)NC4=O)c12 (stereo not drawn), the “% Inhibition” value was -10% and the Z score was 1.27. In the case of COc1ccc(-c2cnoc2-c2cc(OC)c3c(c2)OCO3)cc1, the “% Inhibition” value was 6% and the Z score was -0.72. COCCc1noc(CN2C(C)CCCC2c2ccccc2)n1 (stereo not drawn) was tested, and the “% Inhibition” value was -14% and the Z score was 1.24. With N#Cc1ccccc1OCC(=O)N1CCC[C@H]1c1ccc2c(c1)OCCCO2 the “% Inhibition” value was 1% and the Z score was -0.11. For O=C(NC1COc2c1ccc(Cl)c2Cl)N1CC2CCC1C(CO)C2 (stereo not drawn), the “% Inhibition” value was -4% and the Z score was 0.77. With CCOC(=O)N1CCN(C(=O)c2ccc(-c3cnn(C)c3N)cc2)CC1 the “% Inhibition” value was 4% and the Z score was -0.74. For CS(=O)(=O)N[C@H]1[C@H](NC(=O)c2n[nH]c3c2CCCC3)[C@@H]2CCO[C@@H]21, the “% Inhibition” value was -3% and the Z score was 0.53. c1cnc2nc([C@H]3CCN(CC4CCCCC4)C3)[nH]c2c1 was tested, and the “% Inhibition” value was -5% and the Z score was 0.7. In the case of Cc1nn(C)c2[nH]c(C(=O)N3CCN(CCC(C)C)CC3)cc(=O)c12, the “% Inhibition” value was -23% and the Z score was 1.93. In the case of Cc1cc(C(=O)N2CCCN(CC3CC3)[C@H](C(C)C)C2)nc(N)n1, the “% Inhibition” value was -2% and the Z score was 0.33. For O=C(Nc1ccnc(Cc2ccccc2)n1)N[C@H]1CC[C@H](O)CC1, the “% Inhibition” value was -1% and the Z score was 0.16. With Cc1ccc(C(F)(F)F)cc1NC(=O)N(C)CCS(C)(=O)=O the “% Inhibition” value was -8% and the Z score was 0.78. For CCn1ccc(C(=O)Nc2nc(-c3ccc4c(c3)OCO4)cs2)n1, the “% Inhibition” value was -14% and the Z score was 2.43. Cc1cnc(C)n1CCC1CCN(C(=O)CN2CCCC2=O)CC1 was tested, and the “% Inhibition” value was -14% and the Z score was 1.78. In the case of O=C(c1ccco1)N1CC[C@H](Oc2cc(N3CCOCC3)ncn2)C1, the “% Inhibition” value was -12% and the Z score was 1.52. For COc1cccc2c(CN3CCOCC3)cc(=O)[nH]c12, the “% Inhibition” value was -12% and the Z score was 1.59. In the case of OC[C@H]1CCCN(C2CCN(c3ccc(-c4cccc(F)c4)cc3)CC2)C1, the “% Inhibition” value was -2% and the Z score was 0.32. CNC(=O)N[C@H]1CCCN(Cc2ccc(F)cn2)C1 was tested, and the “% Inhibition” value was -39% and the Z score was 4.57. O=C(O)[C@]12CCC[C@H]1CC(NCc1ncn(Cc3cccc(F)c3)n1)C2 (stereo partly drawn) was tested, and the “% Inhibition” value was -17% and the Z score was 2.89. For Cc1[nH]c2c(c1C(=O)N1C[C@@H]3[C@@H]4CC[C@@H](C4)[C@@H]3C1)C(=O)CCC2, the “% Inhibition” value was 1% and the Z score was -0.13. Cc1ccn2c(NC(=O)C3CCC3)c(-c3cccc(F)c3)nc2c1 was tested, and the “% Inhibition” value was -9% and the Z score was 1.79. With COC1CCC(CNC(=O)[C@H]2NCC23CCCC3)CC1 (stereo partly drawn) the “% Inhibition” value was -2% and the Z score was 0.32. For CNC(=O)c1cc(S(=O)(=O)N2CCC(=O)C3CCCC32)cn1C (stereo not drawn), the “% Inhibition” value was -7% and the Z score was 0.75. O=C(Nc1cccnc1)c1ccc(O[C@H]2CCOC2)nc1 was tested, and the “% Inhibition” value was -16% and the Z score was 3.11. CCOc1ccc(S(=O)(=O)N[C@@H](C)c2nccs2)c(C)c1 was tested, and the “% Inhibition” value was -15% and the Z score was 2.14. In the case of COCCCNC(=O)c1cc(Br)ccc1Br, the “% Inhibition” value was -3% and the Z score was 0.44. For CC[C@H]1CCCCN1Cn1nc(-c2cc(OC)cc(OC)c2)oc1=S, the “% Inhibition” value was 2% and the Z score was -0.31. With NC[C@H]1CCCCN1C(=O)c1cnc(Cc2c(Cl)cccc2Cl)nc1O the “% Inhibition” value was -14% and the Z score was 2.75. With CCCCC(C)C(=O)NCC1CCCN(CC(F)(F)F)C1 (stereo not drawn) the “% Inhibition” value was -19% and the Z score was 2.07. With Cc1ncsc1CCN(C)Cc1nc(C(F)(F)F)no1 the “% Inhibition” value was -16% and the Z score was 1.88. For O=C1[C@@H]2Cc3c([nH]c4ccccc34)C(CCc3ccccc3)N2C(=O)CN1Cc1ccccc1Cl (stereo partly drawn), the “% Inhibition” value was -14% and the Z score was 1.69. For COc1ccccc1Cn1cnc2c3ccccc3n(Cc3ccc(C)cc3)c2c1=O, the “% Inhibition” value was -11% and the Z score was 1.27. For COc1cc(NC(=O)CN(C)C(=O)c2n[nH]nc2C)cc(OC)c1, the “% Inhibition” value was -4% and the Z score was 0.47. Cc1ccc(Nc2nnc(CC(=O)Nc3ccc(OC(F)(F)F)cc3)s2)cc1 was tested, and the “% Inhibition” value was -15% and the Z score was 1.91. With NC(=O)C1CCN(C(=O)c2cnc(O[C@H]3CCOC3)c(Cl)c2)CC1 the “% Inhibition” value was 3% and the Z score was -0.62. In the case of CN(C)c1ncccc1C(=O)Oc1cccc(Cl)c1Cl, the “% Inhibition” value was -3% and the Z score was 0.48. With C[C@@H](O)CNC(=O)NCC(c1cccc(C(F)(F)F)c1)N(C)C (stereo partly drawn) the “% Inhibition” value was -8% and the Z score was 1.07. In the case of Cc1cccc(NC(=O)N[C@H]2CCC[C@H]2C(N)=O)n1, the “% Inhibition” value was -4% and the Z score was 0.79. With CC(C(=O)N1C[C@H](CS(N)(=O)=O)[C@@H](C)C1)c1ccccn1 (stereo partly drawn) the “% Inhibition” value was -8% and the Z score was 1.62. CC(=O)N[C@H]1CCCN(Cc2cc(=O)c3cc(C)ccc3[nH]2)C1 was tested, and the “% Inhibition” value was -4% and the Z score was 0.7. CCN1CCC(CC(=O)N[C@@H](C(=O)O)c2ccc(F)c(Cl)c2)CC1 was tested, and the “% Inhibition” value was -6% and the Z score was 1.06. With Nc1cccc(C(=O)NCc2ccc(CN3CCC(O)CC3)cc2)n1 the “% Inhibition” value was -4% and the Z score was 0.7. O=C(c1ncoc1-c1ccon1)N1CCOc2c(Br)cccc2C1 was tested, and the “% Inhibition” value was -17% and the Z score was 1.81. With O=S(=O)(c1ccc(F)c(Cl)c1)N1CCC[C@H]1c1nncn1Cc1ccncc1 the “% Inhibition” value was -5% and the Z score was 0.93. CCCC1C2C(=O)N(c3c(C)cccc3C)C(=O)C2ON1c1ccccc1 (stereo not drawn) was tested, and the “% Inhibition” value was -2% and the Z score was 0.23. With CC(=O)Nc1cc(F)c(S(=O)(=O)Nc2ccsc2)c(F)c1 the “% Inhibition” value was 0% and the Z score was -0.02. With CC(CCC1CCCO1)NC(=O)c1cc(=O)[nH]c2cc(F)ccc12 (stereo not drawn) the “% Inhibition” value was -8% and the Z score was 1.68. In the case of COc1cccc(N2C[C@H](Cc3ccccc3)N(C(=O)CCC(C)=O)CC2=O)c1, the “% Inhibition” value was 1% and the Z score was -0.12. For Cc1ccc2oc(C(=O)N3CCN(C(=O)c4ccco4)CC3)cc2n1, the “% Inhibition” value was -2% and the Z score was 0.26. For O=C(CO)N[C@H]1CC2(CCCC2)Oc2ccccc21, the “% Inhibition” value was 6% and the Z score was -0.71. For COc1ccc(CNC(=O)Cn2c(C)nc3cc4c(cc32)OCCO4)cc1OC, the “% Inhibition” value was 0% and the Z score was 0.05. With Cc1noc(-c2ccc(S(=O)(=O)N3CCC(c4nnc[nH]4)CC3)o2)c1C the “% Inhibition” value was 10% and the Z score was -1.34. For CCc1nnc(-c2c(C)c(S(=O)(=O)Nc3cccc(OC)c3)c(C)n2CC)o1, the “% Inhibition” value was 28% and the Z score was -3.56. CN(Cc1cnccn1)C(=O)Cc1ccc(O)cc1Cl was tested, and the “% Inhibition” value was 0% and the Z score was -0.05. For O=C(NCC(F)(F)F)[C@@H]1CCCN1c1nc2ccccc2o1, the “% Inhibition” value was -18% and the Z score was 3.33. With CC1CCN(c2cc(C(=O)O)ncn2)CC1 the “% Inhibition” value was -6% and the Z score was 1.02. In the case of COc1cccc(C(C(=O)O)N2CCC(C3CCOCC3)C2)c1 (stereo not drawn), the “% Inhibition” value was -9% and the Z score was 1.05. For CC(C)CC[C@H](C)NC(=O)Nc1nc(C(F)(F)F)co1, the “% Inhibition” value was -2% and the Z score was 0.23. For COc1cnc(NC(=O)c2cc(C(F)(F)F)cnc2C)s1, the “% Inhibition” value was 0% and the Z score was 0.05. For COC(=O)c1nnc(-c2ccc(F)cn2)o1, the “% Inhibition” value was -6% and the Z score was 0.89.

Reference: ChEMBL document CHEMBL4888484, “Replenishing the malaria drug discovery pipeline: Screening and hit evaluation of the MMV Hit Generation Library 1 (HGL1) against asexual blood stage Plasmodium falciparum ,using a nano luciferase reporter read-out” (2022)
